The GPR68 mutational scans of Howard et al. (2025)
The least precise scores are not listed. Two further conditions of the source, in which the scores hardly spread, are not listed. Names with del lack the residues named; names with ins carry added residues between the positions named. For part of these data: The data file names ogerin without a concentration.

B1: GPR68, Q15743 (parent)
chain: MGNITADNSSMSCTIDHTIHQTLAPVVYVTVLVVGFPANCLSLYFGYLQIKARNELGVYLCNLTVADLFYICSLPFWLQYVLQHDNWSHGDLSCQVCGILLYENIYISVGFLCCISVDRYLAVAHPFRFHQFRTLKAAVGVSVVIWAKELLTSIYFLMHEEVIEDENQHRVCFEHYPIQAWQRAINYYRFLVGFLFPICLLLASYQGILRAVRRSHGTQKSRKDQIQRLVLSTVVIFLACFLPYHVLLLVRSVWEASCDFAKGVFNAYHFSLLLTSFNCVADPVLYCFVSETTHRDLARLRGACLAFLTCSRTGRAREAYPLGAPEASGKSGAQGEEPELLTKLHPAFQTPNSPGSGGFPTGRLA

Experiments:
[1] = variants of: B1; test: cAMP reporter score (Enrich2 score, wild type = 0); higher = more signal; HEK293T, FACS bins
[2] = variants of: B1; test: surface expression score (Enrich2 score, wild type = 0); higher = more signal; HEK293T, FACS bins

Variant	cAMP reporter score ([1]; pH 5.5)	cAMP reporter score ([1]; pH 6)	cAMP reporter score ([1]; pH 6, modulator: ogerin)	cAMP reporter score ([1]; pH 6.5, modulator: ogerin)	surface expression score [2]
D16A	0.73	-0.013	0.54	-0.41	0.68
D16Q	-0.352	-0.306	0.145	0.483	0.182
D16C	0.05	-0.385	-0.725	-1.09	-0.593
D16E	0.269	-0.068	0.122	0.485	-0.522
D16G	-0.119	-0.459	-0.004	-0.844	1.06
D16N	0.242	0.108	0.219	-0.281	0.668
D16I	0.771	-0.254	0.163	0.307	0.565
D16P	0.346	0.64	-0.079	-0.004	0.342
D16K	1.08	0.4	0.764	0.436	1.58
D16L	0.088	-0.738	-0.25	-0.73	-0.008
D16M	0.777	-0.16	0.29	-0.346	1.27
D16H	0.699		-0.004	-0.334	
D16F	-0.347	-0.487	-0.717	-1.12	-0.162
M11_S12insGSG	0.69	-0.825	0.552	0.626	0.742
A6D	-0.229	0.085	0.115	0.06	-0.036
A6T	1.63	1.86	0.523		1.83
A6V	0.769	0.096	0.676	-0.365	0.798
A6K	0.471		0.625	0.374	0.52
A6Y	-0.331	-0.163	-0.032	0.052	-0.731
A6I	0.177	0.437	-0.223	-0.498	-0.773
A6L	-0.342	0.185	-0.358	0.004	-0.692

Variant	cAMP reporter score ([1]; pH 5.5)	cAMP reporter score ([1]; pH 6)	cAMP reporter score ([1]; pH 6, modulator: ogerin)	cAMP reporter score ([1]; pH 6.5, modulator: ogerin)	surface expression score [2]
A6C	0.641	-0.8	0.598	-0.577	-0.481
A6N	-0.475	0.643	0.049	-0.652	-0.072
A6R	0.463	1	0.612	0.695	0.394
A6Q	0.114	0.37	0.166	0.402	0.041
A6S	-0.992	-0.277	-0.925	-0.828	-0.949
A6H	0.11	-0.082	0.803	0.293	1.49
A6G	-0.772	-0.527	-0.69	-0.436	-1.23
A6W	0.827	0.457	0.646	0.44	0.756
A6E	0.246	0.258	-0.044	0.435	0.045
A6P	0.178	0.023	-0.029	-0.482	-0.439
A6M	0.01	-0.045	0.182	-0.219	-0.859
A6F	-0.43	0.32	-0.401	-0.082	-0.717
N8_S9insGS	-0.462	0.061	-0.383	0.465	-0.636
A6_N8del	-0.022	-0.231	-0.394	-0.311	-0.833
T5_D7del	-0.635	-0.869	-0.395	-1.27	-1.11
C13D	-0.904	-1.19	-1.1	-0.869	-1.42
C13S	-0.605	-0.588	-1.31	-0.277	-1
C13G	-1.07		-1.62	-0.063	-1.3
C13L	-1.07	-0.212	-0.963	0	-1.45
C13E	-1.24	0.522	-1.32	-0.789	-1.06
C13V	-0.718	-1.22	-1.7	-0.452	-1.71

Variant	cAMP reporter score ([1]; pH 5.5)	cAMP reporter score ([1]; pH 6)	cAMP reporter score ([1]; pH 6, modulator: ogerin)	cAMP reporter score ([1]; pH 6.5, modulator: ogerin)	surface expression score [2]
C13T	-1.2	-0.638	-1.22	-0.566	-1.52
C13M	-1.34	-1.58	-1.07	-1.48	-1.36
C13R	-1.22	-1	-1.56	-1.11	-1.35
C13W	-0.78			-0.081	-1.24
C13K	-1.83	-0.859	-1.61	-0.148	-1.16
C13H	-0.849	-1.17	-1.47	-0.61	-0.923
C13Q	-0.883	-0.087		-1.22	-2.66
C13F	-1.87	-0.513	-2.19		-2.28
C13Y	-1.18	-0.363	-1.28	-0.888	-0.876
C13N	-0.778	-0.478	-0.763	-0.546	-1.19
C13P	-1.08	-0.971	-0.891	-1.22	-1.93
C13A	-1.58	-0.848	-1.83	-0.541	-1.47
C13I	-0.441	-1.33	-1.81	-0.897	-2.09
D7_N8insGSG	2.28	0.957	1.75	1.5	1.44
I4_T5del	0.444		-0.137	0.046	-0.657
S12_C13insG	0.967	-0.083	0.797	-0.109	0.797
I15_H17del	-1.28	-0.802	-1.27	-1.05	-0.891
G2_N3del	0.874	-0.167	0.579	-0.282	0.177
S12_C13insGS	0.32	-0.261	1.13	-0.198	1.42
T5_A6del	0.148	-0.397	0.288	-0.437	-0.495
